Data published in article PMC4336329 (PLoS ONE, 2015).
The whole screen tested about 310,000 compounds, of which about 14,000 (4.5%) showed an effect of 50% or more. The effect is printed as a negative number. This is one part of the list.

What follows are compounds tested against human ether-à-go-go-related gene (hERG) potassium channel (human, UniProt Q12809) (assay: primary screen, population patch clamp on CHO cells stably expressing hERG).
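Further: peak tail current of the secondary pulse compared with the same well before compound.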

human ether-à-go-go-related gene (hERG) potassium channel, sequence (Q12809 whole entry, looked up): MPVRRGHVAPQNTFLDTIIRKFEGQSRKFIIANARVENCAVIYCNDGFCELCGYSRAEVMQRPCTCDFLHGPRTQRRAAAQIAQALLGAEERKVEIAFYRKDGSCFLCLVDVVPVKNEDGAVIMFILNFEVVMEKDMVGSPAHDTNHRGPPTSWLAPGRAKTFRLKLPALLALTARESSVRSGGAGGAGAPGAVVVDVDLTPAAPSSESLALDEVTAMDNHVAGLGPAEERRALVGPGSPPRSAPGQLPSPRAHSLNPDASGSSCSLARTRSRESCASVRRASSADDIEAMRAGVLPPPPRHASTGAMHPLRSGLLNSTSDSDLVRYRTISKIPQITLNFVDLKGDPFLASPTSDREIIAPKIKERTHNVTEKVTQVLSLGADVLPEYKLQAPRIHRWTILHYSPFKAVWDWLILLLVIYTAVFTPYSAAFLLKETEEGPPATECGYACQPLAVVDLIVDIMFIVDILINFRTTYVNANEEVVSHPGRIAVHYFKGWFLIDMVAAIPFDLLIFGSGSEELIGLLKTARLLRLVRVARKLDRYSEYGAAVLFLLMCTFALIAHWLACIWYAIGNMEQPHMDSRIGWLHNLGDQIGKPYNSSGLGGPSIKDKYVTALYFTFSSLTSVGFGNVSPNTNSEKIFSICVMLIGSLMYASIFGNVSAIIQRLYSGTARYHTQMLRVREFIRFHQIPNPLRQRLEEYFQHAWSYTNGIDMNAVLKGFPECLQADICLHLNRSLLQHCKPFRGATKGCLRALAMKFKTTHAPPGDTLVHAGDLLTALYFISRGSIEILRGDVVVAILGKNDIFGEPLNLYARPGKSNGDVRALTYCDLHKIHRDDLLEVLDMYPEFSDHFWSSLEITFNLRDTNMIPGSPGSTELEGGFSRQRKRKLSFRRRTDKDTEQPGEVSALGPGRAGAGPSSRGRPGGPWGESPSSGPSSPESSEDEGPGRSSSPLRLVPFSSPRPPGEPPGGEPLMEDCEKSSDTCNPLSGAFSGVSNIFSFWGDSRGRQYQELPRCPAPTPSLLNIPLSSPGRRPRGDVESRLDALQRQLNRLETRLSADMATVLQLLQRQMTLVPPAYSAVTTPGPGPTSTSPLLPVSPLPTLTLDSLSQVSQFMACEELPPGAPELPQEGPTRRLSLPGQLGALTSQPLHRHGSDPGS

Going from `CCCCOP(=O)(c1ccc(N(C)C)cc1)C(O)c1ccc(OC)c(OC)c1` (stereo not shown) to `CCCOP(=O)(c1ccc(N(C)C)cc1)C(O)c1c(Cl)cccc1Cl` (stereo not shown), the “hERG current change (%, negative = inhibition) at 10uM” value falls from 2.28% to 0.712%.

Compared with `O=C(COC(=O)c1ccc(Cl)c(S(=O)(=O)N2CCCCC2)c1)NCC1CCCO1` (stereo not shown), `O=C(NCC1CCCO1)c1ccc(N2CCCCC2)c([N+](=O)[O-])c1` (stereo not shown) is lower in “hERG current change (%, negative = inhibition) at 10uM” value: -14.1% for the first, -35.3% for the second.

First: COc1ccc(-c2cc(-c3ccccc3)nc(SCC(=O)Nc3ncc(C)s3)c2C#N)cc1
Second: COc1ccc(-c2nnc(NC(=O)CSc3ccccc3)s2)cc1OC
The “hERG current change (%, negative = inhibition) at 10uM” value of the first is lower: -5.9% for the first, 12.2% for the second.

Compared with `Cc1cc(NC(=O)CCC(=O)N(c2ccc(C)c(F)c2)C(C(=O)NC2CCCC2)c2ccco2)no1` (stereo not shown), `CCOC(=O)N1CCC(NC(=O)Cn2ncc3c2-c2cc(C)ccc2OC3)CC1` is lower in “hERG current change (%, negative = inhibition) at 10uM” value: 1.71% for the first, -1.52% for the second.

Compared with `CC(C)n1c(SC2CCOC2=O)nc2ccccc21` (stereo not shown), `Cc1cccc2nc3ccccc3cc12` is lower in “hERG current change (%, negative = inhibition) at 10uM” value: 0.0978% for the first, -1.16% for the second.

Compared with `CC(=O)c1ccc(NC(=O)c2cnn3ccccc23)cc1`, `CC(=O)c1ccc(NC(=O)C(C)Nc2ccc(Cl)cc2)cc1` (stereo not shown) is lower in “hERG current change (%, negative = inhibition) at 10uM” value: -3.97% for the first, -4.45% for the second.

Going from `Cc1cccc(C)c1NC(=O)C(NC(=O)CN1C(=O)c2ccccc2C1=O)c1ccccc1` (stereo not shown) to `O=C(NCCN1CCCC1)c1ccc2c(c1)N(Cc1ccccc1)C(=O)c1ccccc1S2(=O)=O`, the “hERG current change (%, negative = inhibition) at 10uM” value falls from 5.04% to 4.59%.

First: O=C(Nc1cccc(O)c1)c1ccc(NC(=O)C2CCCO2)cc1 (stereo not shown)
Second: O=C(Nc1ccc(-c2cn3ccsc3n2)cc1)C1CCCC1
The “hERG current change (%, negative = inhibition) at 10uM” value of the first is higher: 25.4% for the first, 9.55% for the second.

Going from `Cn1cc(Br)cc2nc(C(F)(F)F)nc1-2` to `COc1cc(NC(=O)C(F)(F)F)cc(OC)c1`, the “hERG current change (%, negative = inhibition) at 10uM” value falls from -0.815% to -8.82%.

Compared with `CC(NC(=O)C1CCN(C(=O)[C@@H]2Cc3ccccc3CN2C(=O)OC(C)(C)C)CC1)c1ccccc1` (stereo partly shown), `Cn1nc(C(=O)N2CCc3ccccc3C2)c2ccccc2c1=O` is lower in “hERG current change (%, negative = inhibition) at 10uM” value: 14% for the first, 6.13% for the second.

First: CC(=O)Nc1ccc(NC(=O)C(C)OC(=O)CNS(=O)(=O)c2cccc(Cl)c2)cc1 (stereo not shown)
Second: NS(=O)(=O)c1cccc(NC(=O)CCSc2ccccc2Cl)c1
The “hERG current change (%, negative = inhibition) at 10uM” value of the first is higher: 18.7% for the first, -0.609% for the second.

First: O=S(CC(O)COCc1ccc(Cl)cc1)c1ccccn1 (stereo not shown)
Second: COC(=O)c1ccc(CO/N=C/c2ccc(OC)cc2OC)cc1
The “hERG current change (%, negative = inhibition) at 10uM” value of the first is higher: 26.8% for the first, 14.4% for the second.

Compared with `CC(C)NC(=O)c1ccc(Sc2ccccc2)c([N+](=O)[O-])c1`, `CCOC(=O)c1cnn(-c2ccccc2)c1NC(=O)c1cccs1` is lower in “hERG current change (%, negative = inhibition) at 10uM” value: 8.54% for the first, -5.91% for the second.

Compared with `CCCNC(=O)c1oc2ccc3c(c2c1C)C(=O)CC(C)(C)O3`, `CCCNC(=O)CN(Cc1ccccc1F)S(=O)(=O)c1ccc(C)cc1` is lower in “hERG current change (%, negative = inhibition) at 10uM” value: -3.97% for the first, -6.17% for the second.

Going from `COc1cccc(C2NC(CC(C)C)(C(=O)O)C3C(=O)N(Cc4ccccc4)C(=O)C23)c1O` (stereo not shown) to `COc1ccccc1CCC(=O)Nc1nc2ccccc2[nH]1`, the “hERG current change (%, negative = inhibition) at 10uM” value rises from 10.2% to 15.7%.

Going from `CCN1CCN(Cc2cc(=O)oc3ccc(Cl)cc23)CC1` to `CCN1CCN(c2cc3c(cc2F)c(=O)c(S(=O)(=O)c2ccccc2)cn3C)CC1`, the “hERG current change (%, negative = inhibition) at 10uM” value falls from -15% to -19%.

Going from `CC(Sc1nc2c(c(=O)[nH]1)CCCC2)C(=O)Nc1ccc(Br)cn1` (stereo not shown) to `N#Cc1c(N)nc2c(c1-c1ccccc1)CCCC2`, the “hERG current change (%, negative = inhibition) at 10uM” value rises from -8.59% to -1.63%.

Compared with `CC(c1ccccc1)C1OCC(C[N+]2(C)CCCCC2)O1.[I-]` (stereo not shown), `O=C(NCC1(c2ccccc2)CCCC1)C1(c2ccccc2)CCCC1` is lower in “hERG current change (%, negative = inhibition) at 10uM” value: 20% for the first, -11.4% for the second.

First: CCOC(=O)N1CCN(C(=O)c2ccc3nc(-c4ccccc4)c(-c4ccccc4)nc3c2)CC1
Second: COc1ccc(-n2c(SCC(=O)Nc3cccc(C(=O)O)c3)nnc2-c2ccco2)cc1
The “hERG current change (%, negative = inhibition) at 10uM” value of the first is lower: -54.6% for the first, 17.7% for the second.

First: CCOc1cc(C(=O)OCC(=O)Nc2cccc(C)c2)ccc1OCC(=O)N1CCOCC1
Second: Cc1ccc(C)c(S(=O)(=O)N2CCN(CC(=O)Nc3ccc4c(c3)OCCO4)CC2)c1
The “hERG current change (%, negative = inhibition) at 10uM” value of the first is higher: 10.1% for the first, -13.9% for the second.

First: COC(=O)C1C(=O)NCC1c1ccccc1 (stereo not shown)
Second: COc1cccc(C(C(=O)NCc2ccccc2)N(C(=O)c2csnn2)C2CC2)c1 (stereo not shown)
The “hERG current change (%, negative = inhibition) at 10uM” value of the first is higher: 25.3% for the first, -4.31% for the second.

First: O=[N+]([O-])c1cc(CS(=O)(=O)Oc2ccc(Cl)cc2)c(O)c([N+](=O)[O-])c1
Second: CCn1cc(CN(C)C(=O)/C=C/c2ccc([N+](=O)[O-])cc2)c(C)n1
The “hERG current change (%, negative = inhibition) at 10uM” value of the first is higher: 15.1% for the first, -59.4% for the second.

Going from `CCOC(=O)/C=c1\s/c(=C\c2ccc(C#N)cc2)c(=O)n1CC(=O)NCc1ccco1` to `CS(=O)(=O)C1=NN2C(=N)/C(=C\c3ccc(OC(=O)c4ccco4)cc3)C(=O)N=C2S1`, the “hERG current change (%, negative = inhibition) at 10uM” value rises from 3.55% to 8.77%.

Compared with `O=C(COC(=O)c1cc(=O)[nH]c2ccccc12)c1ccc(Br)cc1`, `O=c1c2ccccc2nc(/C=C/c2ccc(F)cc2)n1-c1ccccc1O` is lower in “hERG current change (%, negative = inhibition) at 10uM” value: 4.54% for the first, 2.07% for the second.

Compared with `COc1ccccc1-c1ccc(SCc2ccccc2F)nn1`, `CN(C)CCNCCCOc1ccccc1-c1ccccc1.O=C(O)C(=O)O` is lower in “hERG current change (%, negative = inhibition) at 10uM” value: -7% for the first, -20.7% for the second.

First: O=C(CSc1nnnn1-c1ccc(C(=O)O)cc1)NC1CCCCC1
Second: CC1CCN(Cc2nnnn2-c2ccc(Cl)cc2)CC1
The “hERG current change (%, negative = inhibition) at 10uM” value of the first is higher: 1.48% for the first, -4.53% for the second.

Going from `O=C1CC(c2ccc(F)cc2)CC(O)=C1C1NCCc2ccccc21` (stereo not shown) to `COc1ccc(/C=C2\SC(=Nc3ccccc3OC)NC2=O)cc1`, the “hERG current change (%, negative = inhibition) at 10uM” value falls from 8.49% to 8.4%.

Compared with `Cc1noc(C)c1CSc1ncnc2sc3c(c12)CCCCC3`, `Cc1ccc2c(Cl)c(C)c(N3CCCC3)nc2n1` is lower in “hERG current change (%, negative = inhibition) at 10uM” value: 11% for the first, -2.23% for the second.

First: CC(C)COP(=O)(OCC(C)C)C(O)c1ccccc1F (stereo not shown)
Second: Cc1cc(C(F)F)nn1CC(=O)NCc1ccccc1F
The “hERG current change (%, negative = inhibition) at 10uM” value of the first is lower: -1.27% for the first, 0.0703% for the second.

First: COc1cccc(/C=N/NC(=O)CCCc2ccc(OC)c(C)c2)c1
Second: COc1ccc(Br)cc1CN(C)CC(=O)Nc1c(Cl)cccc1Cl
The “hERG current change (%, negative = inhibition) at 10uM” value of the first is higher: -3.05% for the first, -3.2% for the second.

Compared with `Cc1ccc(C2N(c3cc(C)on3)C(=O)C3CCCN32)cc1` (stereo not shown), `Cc1ccc(C2N(c3cccc(Cl)c3)C(=O)N3CCCN23)cc1` (stereo not shown) is lower in “hERG current change (%, negative = inhibition) at 10uM” value: 8.51% for the first, -12% for the second.

Compared with `O=C(Cc1ccc(F)cc1)Nc1ccc2[nH]ncc2c1`, `COc1ccc(Cn2cnc3c4cc(F)ccc4n(C)c3c2=O)cc1` is lower in “hERG current change (%, negative = inhibition) at 10uM” value: 18.6% for the first, 9.87% for the second.

Going from `C=CCOc1cccc(C2/C(=C(\O)c3ccc4c(c3)OCCO4)C(=O)C(=O)N2CCN2CCOCC2)c1` (stereo not shown) to `O=C(CN1C(=O)S/C(=C\c2ccc(-c3cc(C(=O)O)ccc3Cl)o2)C1=O)Nc1ccc2c(c1)OCO2`, the “hERG current change (%, negative = inhibition) at 10uM” value rises from -13.1% to 9.81%.

First: CCOc1cc(C2C(C(=O)OCC(C)C)=C(C)N=C3SCCC(=O)N32)ccc1OC(C)=O (stereo not shown)
Second: CCOC(=O)C1CCCCN1C(=O)CCc1nnc(-c2ccc3c(c2)OCO3)o1 (stereo not shown)
The “hERG current change (%, negative = inhibition) at 10uM” value of the first is lower: -11.2% for the first, 8.84% for the second.

Going from `CCCCNc1nc(-c2ccccc2)cc(C(F)(F)F)c1C(N)=O` to `Cc1ccsc1/C=N\NC(=O)Cn1nnc2ccccc21`, the “hERG current change (%, negative = inhibition) at 10uM” value falls from 13.5% to 5.64%.

Compared with `CCCn1cnc2c(cnn2-c2ccc(F)cc2)c1=O`, `CS(=O)(=O)Nc1ccc2c(c1)ncn2CCc1ccccc1` is lower in “hERG current change (%, negative = inhibition) at 10uM” value: -5.26% for the first, -26.4% for the second.

Going from `COc1cccc(N(C(=O)c2ccco2)c2nc(-c3sc(NC(=O)c4ccco4)nc3C)cs2)c1` to `COc1cccc(NC(=S)NNC(=O)c2c([N+](=O)[O-])c(C)nn2C)c1`, the “hERG current change (%, negative = inhibition) at 10uM” value falls from 29.4% to 17.3%.

First: O=c1cc(CSc2ccccn2)[nH]c(=O)[nH]1
Second: CCOCC(=O)Nc1nc2ccc(OCC)cc2s1
The “hERG current change (%, negative = inhibition) at 10uM” value of the first is lower: 3.76% for the first, 9.9% for the second.

First: Cn1cc(CN2CCC(n3nccc3NC(=O)C3CCCC3)CC2)cn1
Second: Cc1c(Cl)cccc1NC(=O)CN(C1CCCCC1)S(C)(=O)=O
The “hERG current change (%, negative = inhibition) at 10uM” value of the first is higher: 12.6% for the first, 10.7% for the second.

First: Cc1cc(N)c(NC2=CC(=O)CC(C)(C)C2)cc1C
Second: Cc1ccc(N2CC(C(=O)Nc3ccc(S(=O)(=O)Nc4ncccn4)cc3)CC2=O)cc1C (stereo not shown)
The “hERG current change (%, negative = inhibition) at 10uM” value of the first is lower: 7.28% for the first, 14.6% for the second.

Going from `CCOC(=O)C(=O)N1CCN(CC)CC1` to `O=C(Nc1cc(S(=O)(=O)N2CCCC2)ccc1OCC(F)(F)F)c1ccc(F)cc1`, the “hERG current change (%, negative = inhibition) at 10uM” value falls from 17.5% to 2.57%.

First: CC1CN(C(=O)/C=C/c2ccccc2[N+](=O)[O-])CC(C)O1 (stereo not shown)
Second: Cc1c(N)cccc1[N+](=O)[O-]
The “hERG current change (%, negative = inhibition) at 10uM” value of the first is lower: -4.44% for the first, 17.7% for the second.

Compared with `COc1ccc(-c2[nH]ncc2/C=C(/C#N)C(=O)NC2CCCCCC2)cc1`, `Cc1ccc2c(c1)C1C=CCC1C(C(=O)O)N2` (stereo not shown) is higher in “hERG current change (%, negative = inhibition) at 10uM” value: -1.72% for the first, 1.68% for the second.

Going from `NC(=O)C1CC(O)CN1c1nc(CN2CCOCC2)nc2scc(-c3ccccc3)c12` (stereo not shown) to `Cc1c(CC(=O)NCC(=O)NCC(=O)O)c(=O)oc2cc3oc4c(c3cc12)CCCC4`, the “hERG current change (%, negative = inhibition) at 10uM” value rises from -6.13% to 8.31%.
